Source: the RNAGym collection of RNA variant scans (doi:10.7554/elife.90254)
The source gives no read counts; variants with many changes may rest on few reads.

B1: LINE1-full (parent)
chain: UACGUAGGUGGUUUUCCCCUGAUAGUGCUAAGGGGGCCUGGAAGUUUGGACUGGGCAGAGCUCAACACAGCGUGGCAAAGUGGCUGUGGCUAGACUGCCUCUCUGGAUUCCUCGUCACUCAGCAGGGCAUCUCUGAGAGAAAUGCC

Variants of: B1
Assay: self-cleavage, relative activity (ratio to wild type); higher = more cleavage; in vitro, sequencing; the parent is a self-cleaving ribozyme

Variant | self-cleavage
U45C A67U U85G U100C A140G | 0
A77U U112C A138G | 1.49
U102C U130C A142G | 0.84
C17U U47C G75A U96A U104C | 0.03
U14C U100C U112C A141G | 1.94
U13A U39A U73C A141G | 1.07
A22G A69G U100C A117U | 0.97
U87C A94G C101G | 0
A67G C120U U132C | 0.61
U5A U52A C101A | 0.93
U39C U62C A69U A92G U108C G125U | 0
A107U A124G C128U | 1.3
U14C U26C A69U U102C | 0.37
U12C U85C C95A A136G | 0.14
U39A U52A A124U | 1.43
A31U U46C A69U G72A | 0.09
A79C U81C U96A | 0.05
U12A C19A A67G | 0.71
G11A G35A A67U C84G A138G | 0.01
U5C A43G A77G U85C U100C C111U A129U | 0
U13C U96C U119C | 0.08
U39A A69U U87C A107U | 0.02
U46G A67G A141G U143A | 0.75
C19U U73A A141G | 1.36
U109A U115C A138G | 2.45

Variant | self-cleavage
G25A U73A U87A G127U | 0.03
U9C A78U U109C A138U | 1.9
A2G U46C A138U | 1.2
U14C A50G A69G G125U | 0.27
C18A A57G U104A U112A C116U U143A | 0.34
U87C C113U U130C | 0.2
A78G A107G U134C | 1.8
C19U A31U A59G A140G | 0
U12G U45C A65G G89A A92G | 0.13
U39C A67G U115A A124U | 1.04
U39G G54U U132C A138G | 1.27
U45C U112C A117G U134A | 1.41
A6U U47C A78G | 0.71
G72A U119C G122A A142G | 1.29
U45G A59U A92G A138G | 0.3
U62C U96C C111U G127A | 0.04
U46C U104C A138U | 2.4
A79G U96C U143C | 0
A57G A77U U96A A117G | 0
A30U G48A U96C | 0.16
U12A U20C U100A A107U U109A | 0.87
G4U A92U U102C | 0.72
U96C U104C A124G | 0
A92C U119A A129G | 0.18
G32A U81A A94G G125A A141G | 0.31

Variant | self-cleavage
A31U A65G A142G | 0
U45C C66A U115C A136G A138G | 0.11
U12C U15C A22G G27A C116U | 0.89
A31G A43U A69U A141U | 0.04
U20C A59U A64G U91C | 0.6
A77G A94U A121U U132C A136G | 0.74
G8A G53U A69G | 0.57
A78U U104A U115C | 1.21
U14C U15C C51A U52A | 1.19
U39C U52A A69U | 0.07
A64G U85A U104G A107G | 0
A22G A31G A57U A69G U73A A78G | 0
U26A U46C U104G | 0.33
U52A U132C U134G | 1.53
U62A U73C A77G U130C | 0
U14C U45C U112C | 1.63
U15A A69G U100C U115C A141G | 0
U29C A30G U96A U102C | 0
U52G A57G U130C A141G | 0.71
U39C A107G A117C | 1.15
U20A A42G A129G | 1.6
U15A U46C U119C | 1.47
U5C U29C G114U A136G | 2.27
U15A A57U U91A U119A A142G | 0.06
A6G U12C A65G A77G G127A | 0.24

Variant | self-cleavage
U12G A31C G88A U109C | 0.25
U12C A42G A50U G89U | 0.09
U20C U26A A77U | 0.61
U39C U81G U87A U91G | 0.09
A64G U81A A141G | 0.38
A64U U73G U87A A107G A117U | 0.01
U26C A43G A141G | 1.31
A2G A77G U112C | 1.41
U132C A140G U143C | 1.45
G83A U96C U134C | 0.08
A31G A129U U130C | 0.46
G83A U109C U115C | 0.46
C3U A24G C37U U46C A50G A64G C99A A117U | 0.13
U9C U13C U87C U102C | 1.84
C3G U9C U87A | 0.24
U20C U47C G88U | 0.02
U9C U102G A129G | 0.61
U12C U20C U143C | 1.13
G35U U46C A67U C99U C123U | 0.11
U12C A22U U45C U62A | 0.19
U14C G54A U143A | 0.54
U47A C99A U108A | 0.63
C84U A129U U132C A140G | 0.13
G58A A94U A121U | 0.02
U12A U14C U73C U100C | 1.67

Variant | self-cleavage
U14C U87G U134G | 0.3
A78G U96C U115A | 0.21
U81A A117G A124U A136G | 2.01
U47C C71U A141G | 1.87
A42U A65G U96C G139A A140G | 0
A64G A77U G83A | 0.06
A6G A24G C76U A79U U81A A94G U112C | 1.07
C66U A77G U87A | 0.04
A24U U47A A57G G86A | 0.11
U13C A43G U73A C145U | 1.13
U26A A57G U73C U130C | 0.84
U29C A43G U81A U112C | 2.51
G35U G41C G48A U81C A121C A124G | 0.22
G86A A129G A141G | 0.26
U1C U15C A117U | 0.77
C17U U29C U47G A67G A78G A94G C95U C128U U132A | 0
U46C A65G G106C U134C | 0
U29C U85A U100C | 0.26
U13A A22G A30U A57G A124U | 0.65
U29C A77G U119A | 1.64
U13C U62C A121U A138U | 0.1
U62A U73C C146U | 0
U13C U14C U20C C76U G83C | 1.97
U13C U73C U134A A141G | 1.76
A30U U52A U62C U102C U115C | 0.44

Variant | self-cleavage
A22G A42U U108C U132C | 0.8
U9A C19U U39A U100G A141G | 0.3
U12C C38U A59G A141G | 0.17
A57G A77U U134A | 0.2
U9C U39C U62A | 0.12
U23C G36A A77G U134A | 2.08
A67G U73A A107G | 0.22
A59G U104C U132C | 0.54
U46C A69G A78G G83A | 0.21
A69U U109C C123U | 0.06
U12C A107G U143A | 0.59
U9C U15C U115C | 0
U13C U26C A94G A129G | 1.84
U13C C84U A136G | 0.03
U12C A69G U119A | 0.55
U73A A129G A138U | 1.7
U20C U52C A69G | 0.31
U26C G53A A94G | 0.33
A6G A50U A64U A142G | 0.58
U46C G125U A140U | 1.43
U13C U109A U119C | 1.84
U12C U29C U46C U47G A78G U102A G105A U115A C123U | 1.31
A107G U112A U143C | 1.97
U62C U73A U132C | 0
A6G A31G A59U A107G G114U C118A A141G | 0.96

Variant | self-cleavage
C19U A92C U96A | 0.09
A77G U81C A94G A138G | 0
U46C C61U A65U U104C | 0.06
U14A A77G G125U C133A | 0.58
U13C U47C G48A | 1.69
U1A U13C A22G U115C U130A | 0
A22C A31U A59G U73A | 0.38
U5A A31U A142G | 1.53
U13C U81C U130G | 1.23
A67G U85C U143A | 0.27
C3A U14C U47C | 1.02
A59G A64C A129G A141G | 0
A22G U39C A43G C145G | 2.68
A42G U62C C99U U109A | 0.06
U20A A65G U73C A136G | 0
A31G A42G U96A | 0.18
A31G A92G U130A | 0
A22G A78G A117U U132C | 1.08
U12A U20C U26G A42G | 0.8
U9C U14C U104C A138G | 0.77
U12G C18U A57G U85A | 0.19
A22G U115A U132G A141G | 1.53
U45C A64U G88A | 0
A2G U20A U23C G33A U81C A107G A117U U143C | 0
U9A A42G U102A A140G | 1.06

Variant | self-cleavage
U9C U96C G125U | 0.03
A57U A77C A79G U81A U104C U143C | 0
U9A U102C A129U | 1.31
U47C A69C U104C | 1.53
C19U A59G C123A U130A A136G | 0.15
C38A U73C A136G | 0.41
G4C U14C U100C A138G | 1.15
A6U U15C U47A U62C A142G | 0.45
G54C U100A A121G | 0.69
A6G A42U U46C | 0.97
C19U A22G U52A U73A U132C | 0.93
G54A U62C U87C | 0
U15C A31G A64G | 0.8
C98A A121G A142G | 0.07
A50G U108C C133U | 2.63
U46C U62C A64G | 0
A2G G89U A107G | 0.32
U13C U45A U87A | 0.13
A24G A31G A42G A121U A124G | 1.31
U14C A22G G35A A121G | 0.92
U1C C19A U52G U87A | 0
C19G U23A A121U U134C | 1.1
U29C U81C C128U | 1.62
G54A G80A U85C U104C A140G | 0
U5A A30U U73C | 1.21

Variant | self-cleavage
U1C A77G A136G | 0
A42U G72A A142G | 1.09
U47A A50G U73C | 1.75
U26A A129U A138G | 1.04
U9C U45C A50G U100C | 1.53
U12C U14C U45A U130C | 0.82
A22G A78G C116U A138G | 1.09
A31G C61A A138G | 0.05
A79G A117C A121U A140U | 2.14
G82A A92G C95A U108G U112C | 0.07
U23C A77G G93A | 0.05
U9C U45C G49U U108C | 1.49
U14A U29C A117G | 2.83
C19U C76U U119C | 2.38
U23C A121C A136U | 1.48
A69U A78U U108G | 0.08
C18A U26C U52C | 1.15
U13C G49U U73C | 1.12
A67U U87A U91A U143A | 0.57
A6G A30U A50G U132C | 1.31
A67G U91A U112C | 0
U12G U102A G144A | 1.75
U73A A78G A79C | 1.17
